Laboratory results from article PMC4336329 (PLoS ONE, 2015).
Out of some 310,000 compounds screened, about 2,200 (0.71%) showed an effect of 50% or more. Effects have a minus sign here. The list shows a part of the results.

molecular target: human ether-à-go-go-related gene (hERG) potassium channel (human, UniProt Q12809); assay: primary screen, population patch clamp on CHO cells stably expressing hERG
Sequence (Q12809 whole entry, looked up): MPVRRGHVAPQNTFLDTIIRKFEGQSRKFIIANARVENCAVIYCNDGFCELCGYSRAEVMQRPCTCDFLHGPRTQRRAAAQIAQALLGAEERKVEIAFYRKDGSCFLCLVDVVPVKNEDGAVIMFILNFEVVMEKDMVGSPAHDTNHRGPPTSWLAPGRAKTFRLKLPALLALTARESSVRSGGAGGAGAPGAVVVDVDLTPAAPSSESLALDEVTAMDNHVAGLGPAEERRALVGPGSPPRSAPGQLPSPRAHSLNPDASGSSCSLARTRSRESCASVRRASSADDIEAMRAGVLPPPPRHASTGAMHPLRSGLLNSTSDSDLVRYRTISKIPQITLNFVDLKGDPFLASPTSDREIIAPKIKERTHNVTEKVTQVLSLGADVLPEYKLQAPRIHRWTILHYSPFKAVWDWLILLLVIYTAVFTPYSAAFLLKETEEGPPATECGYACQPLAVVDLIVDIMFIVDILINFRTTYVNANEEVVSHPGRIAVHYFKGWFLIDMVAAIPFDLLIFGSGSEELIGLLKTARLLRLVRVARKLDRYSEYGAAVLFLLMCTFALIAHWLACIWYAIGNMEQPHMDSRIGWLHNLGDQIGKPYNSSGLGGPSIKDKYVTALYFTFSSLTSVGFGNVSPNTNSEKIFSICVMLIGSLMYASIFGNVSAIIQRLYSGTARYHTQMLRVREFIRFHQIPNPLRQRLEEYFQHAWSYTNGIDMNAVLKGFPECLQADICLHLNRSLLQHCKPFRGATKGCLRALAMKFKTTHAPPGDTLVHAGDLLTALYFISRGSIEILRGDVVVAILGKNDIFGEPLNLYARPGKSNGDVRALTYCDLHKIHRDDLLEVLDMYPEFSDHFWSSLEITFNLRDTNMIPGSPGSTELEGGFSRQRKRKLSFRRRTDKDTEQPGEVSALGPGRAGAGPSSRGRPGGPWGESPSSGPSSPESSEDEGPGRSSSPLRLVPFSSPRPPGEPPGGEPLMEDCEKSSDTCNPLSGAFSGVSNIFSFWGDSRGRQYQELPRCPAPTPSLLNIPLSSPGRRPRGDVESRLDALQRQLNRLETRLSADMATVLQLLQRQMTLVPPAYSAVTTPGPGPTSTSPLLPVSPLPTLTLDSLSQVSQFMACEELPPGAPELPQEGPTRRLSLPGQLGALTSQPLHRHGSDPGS

| Compound | hERG current change (%, negative = inhibition) at 1uM [%] |
| --- | --- |
| Cc1ccc(NC(=O)/C=C/c2ccco2)nc1 | 15.4 |
| CCOc1ccc2c(=O)c(Oc3ccccc3OCC)coc2c1 | -0.023 |
| CC(=O)Nc1ccc(NC(=O)CNC(=O)c2sc3ccccc3c2Cl)cc1 | 3.18 |
| COC(Cc1ccccc1N1CCCC1=O)OC | 11.4 |
| CC(=O)Nc1ccc(C(=O)NCC(c2ccco2)N(C)C)cc1 (stereo not shown) | 12.5 |
| COC(=O)C1=CN(C)C=C(C(=O)OC)C1c1ccccc1Cl | 14 |
| Cc1n[nH]c(=O)c2c(NC(=O)CSc3ccccc3F)oc(C)c12 | 15.6 |
| O=C(Nc1cc(Cl)ccc1-n1cncn1)c1ccc(F)c(S(=O)(=O)N2CCOCC2)c1 | -15.3 |
| CCc1ccccc1NC(=O)CSc1nnc(-c2ccco2)n1N | 11.3 |
| CCOC(=O)c1cc(-c2nnc(-c3ccc(Oc4ccccc4)cc3)o2)c(C)nc1C | 17.8 |
| CC1(C)C(c2ccccc2)=NC(c2ccccc2)N1O (stereo not shown) | -10.3 |
| COc1cccc(N=C2NC(=O)/C(=C/c3cc([N+](=O)[O-])ccc3O)S2)c1 | 5.39 |
| OCCC1CN(Cc2cccn2-c2cccnc2)CCN1CCc1ccccc1 (stereo not shown) | -37.5 |
| CC(c1nnc(SCC(=O)Nc2cc([N+](=O)[O-])ccc2F)n1Cc1ccccc1)N(C)C (stereo not shown) | -12.3 |
| CCC1(C)Cc2ccccc2-c2nc(NCCCO)n(C)c(=O)c21 (stereo not shown) | 6.68 |
| Clc1ccccc1-c1ncc2ccccn12.O=C(O)C(=O)O | 7.65 |
| CCOC(=O)c1ccc(NCn2c(=O)oc3ccccc32)cc1 | -18.7 |
| O=C(CCc1nc(-c2ccccc2F)no1)NCc1ccco1 | 8.26 |
| Cc1ccc2nc(N3CCCCC3)c(C=O)c(=O)n2c1 | 7.46 |
| Cc1ccc(C)c(OCC(=O)O/N=C(\N)c2cccc([N+](=O)[O-])c2)c1 | 6.15 |
| COc1ccccc1/C=C1\NC(=S)N(CC2CCCO2)C1=O (stereo not shown) | 2.49 |
| Cc1cc(C(=O)OCC(=O)Nc2nccs2)c2ccccc2n1 | 1.2 |
| O=C(Oc1ccccc1)c1ccc(NC(=O)c2ccco2)cc1 | 4.38 |

| Compound | hERG current change (%, negative = inhibition) at 1uM [%] |
| --- | --- |
| COc1ccc(NC(=O)CCc2nnc3ccc(N4CCC(C)CC4)nn23)cc1 | 14.3 |
| CCOC(=O)C1CCCN(C/C(O)=C(\C#N)c2nc(-c3ccccc3)cs2)C1 (stereo not shown) | 8.83 |
| CCOC(=O)C1=C(C)NC(SCC(=O)O)=C(C#N)C1c1ccco1 (stereo not shown) | 1.04 |
| O=C(CCc1nnc(Cc2c[nH]c3ccccc23)o1)NC1CCCC1 | -5.36 |
| COc1ccccc1-c1ccc(/C=C2\C=CC(=O)O2)o1 | 13.1 |
| CC(NC(=O)c1ccccc1F)c1ccccc1 (stereo not shown) | 15.3 |
| O=c1c2cccnc2nc2n1CCCCC2 | 18.9 |
| Cc1ccc(S(=O)(=O)Nc2c(C)cc(C)nc2Cl)cc1 | 7.26 |
| O=C(NC1CCCCC1)C(c1cc2c(cc1[N+](=O)[O-])OCO2)N1CCCCC1 (stereo not shown) | 3.05 |
| Brc1cc(Br)c(Oc2cc(Br)c(Br)cc2Br)cc1Br | 12.3 |
| CC(=O)NC(CCS(C)(=O)=O)C(=O)Nc1c(F)cccc1F (stereo not shown) | 0.8 |
| CC/C(=N\NC(=O)c1cccnc1)c1ccc2c(c1)OCCO2 | 5.62 |
| CCCn1c(C(O)c2ccc(OCC)cc2)nc2ccccc21 (stereo not shown) | -9.82 |
| CCc1cc(=O)oc2cc(OC(=O)CN3C(=O)NC4(CCCC4)C3=O)ccc12 | 11.3 |
| COc1ccc(NC(=O)Nc2sc(=S)n(C)c2C)cc1 | 9.74 |
| CCc1nc(NCCO)c(C#N)c2c1CSC(C)(C)C2 | 17.2 |
| COc1ccccc1-n1c(CNC(=O)c2ccc(S(=O)(=O)N3CCOCC3)cc2)n[nH]c1=S | 7.16 |
| O=S(=O)(Nc1nc2ccccc2s1)c1ccc(Br)s1 | 9.8 |
| CCCS(=O)(=O)Nc1c(C(=O)OC)[nH]c2ccccc12 | 0.77 |
| COc1cccc(/C=N/NC(=O)CN2CC(c3ccccc3)CC2=O)c1O (stereo not shown) | 11.6 |
| COc1cc2c(cc1OC)-c1cc(Nc3cccc(C)c3)nc(=O)n1CC2 | -19.5 |
| COc1ccc(NC(=O)CN2CCN(C(=O)C3CCCO3)CC2)c(OC)c1 (stereo not shown) | -18.5 |
| CN(C)S(=O)(=O)c1ccc(Cl)c(NC(=O)CN2CCN(Cc3ccc4c(c3)OCO4)CC2)c1 | -12.1 |
